# Assay results: the supplement of paper PMC9446081
# Hit rate of the full screen: of about 39,000 compounds, about 220 (0.56%) showed activity. This is one part of the list.
# Tested on: Escherichia coli K-12 BW25113
# Experiment: relative growth (OD600 normalised to plate interquartile mean) (fraction); higher = less growth inhibition, active = 0.2 or less
# Conditions: 50 µM; LB; incubation time: overnight (16-24 h)
# 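Also: static incubation at 37 °C against the wild-type strain, values averaged over two biological replicates.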
row,Structure (SMILES),relative growth
1,CNC[C@@H]1OCCCC[C@@H](C)Oc2ccc(NS(=O)(=O)c3cn(C)cn3)cc2C(=O)N([C@H](C)CO)C[C@H]1C,inactive: 0.981
2,O=C(O)c1cc(S(=O)(=O)NCCN2CCNC2=O)ccc1O,inactive: 1.04
3,C[C@@H]1CN([C@H](C)CO)C(=O)Cc2cc(NC(=O)CCC(F)(F)F)ccc2O[C@@H]1CN(C)Cc1ccc(Cl)c(Cl)c1,inactive: 0.988
4,C[C@H]1CN([C@@H](C)CO)C(=O)c2cc(NC(=O)Cc3cn(C)c4ccccc34)ccc2O[C@@H]1CN(C)Cc1ccc(C(F)(F)F)cc1,inactive: 0.98
5,C[C@H]1CN([C@@H](C)CO)C(=O)c2cccc(NC(=O)Nc3ccccc3)c2O[C@H]1CN(C)C(=O)Nc1ccc(C(F)(F)F)cc1,inactive: 0.993
6,O=C(N[C@H](c1ccc(F)cc1)c1ccc2ccccc2n1)C1CCN(CCOc2ccc(Cl)cc2)CC1,inactive: 0.988
7,C[C@@H]1CCCCO[C@@H](CN(C)Cc2ccccc2)[C@H](C)CN([C@H](C)CO)C(=O)c2cc(NC(=O)Cc3ccccc3)ccc2O1,inactive: 0.998
8,COc1ccc(S(=O)(=O)N(C)C[C@H]2Oc3ccc(NC(=O)Cn4cnnn4)cc3CC(=O)N([C@@H](C)CO)C[C@H]2C)cc1,inactive: 0.924
9,O=C/C=C/c1ccc(Cl)cc1,inactive: 0.977
10,C[C@@H]1CN([C@@H](C)CO)C(=O)c2cc(NS(C)(=O)=O)ccc2O[C@@H](C)CCCCO[C@@H]1CN(C)C(=O)CCCN(C)C,inactive: 0.996
11,NC(=O)CSc1nnc(Cc2cc(=O)[nH]c(=O)[nH]2)n1-c1ccccc1,inactive: 0.994
12,C[C@@H]1CN([C@H](C)CO)C(=O)c2cccc(NC(=O)C3CCOCC3)c2O[C@@H]1CN(C)C(=O)Nc1ccc2c(c1)OCO2,inactive: 1.01
13,C[C@@H]1CN([C@@H](C)CO)C(=O)c2cc(C#CCN(C)C)cnc2O[C@@H]1CN(C)C(=O)c1ccc2c(c1)OCO2,inactive: 0.994
14,CCn1nnnc1NCc1cccn1C,inactive: 1
15,C[C@H]1CN([C@@H](C)CO)C(=O)Cc2cc(NC(=O)Nc3ccccc3)ccc2O[C@H]1CN(C)S(=O)(=O)c1cn(C)cn1,inactive: 0.993
16,COc1ccccc1CNC(=O)C[C@@H]1C[C@@H]2c3cc(NC(=O)c4ccc5c(c4)OCO5)ccc3O[C@@H]2[C@@H](CO)O1,inactive: 0.992
17,Cc1ccc(S(=O)(=O)Nc2ccc3c(c2)CC(=O)N([C@H](C)CO)C[C@@H](C)[C@H](CN(C)Cc2ccc(-c4ccccc4)cc2)O3)cc1,inactive: 1.06
18,C[C@@H]1CCCCO[C@@H](CN(C)C(=O)Nc2ccc(F)cc2)[C@@H](C)CN([C@H](C)CO)C(=O)c2cc(NC(=O)Nc3ccc(C(F)(F)F)cc3)ccc2O1,inactive: 1.02
19,C[C@@H]1CCCCO[C@H](CN(C)C(=O)CCC(F)(F)F)[C@@H](C)CN([C@H](C)CO)C(=O)c2cc(NC(=O)Cc3ccccc3)ccc2O1,inactive: 0.99
20,COc1ccc(CN(C)C[C@@H]2OCCCC[C@H](C)Oc3ccc(NC(=O)Nc4ccc(C(F)(F)F)cc4)cc3C(=O)N([C@@H](C)CO)C[C@@H]2C)cc1,inactive: 0.956
21,CC(C)CC#Cc1ccc2c(c1)O[C@@H](CN(C)C(=O)C1CCOCC1)[C@H](C)CN([C@@H](C)CO)S2(=O)=O,inactive: 1.01

row,Structure (SMILES),relative growth
1,Cc1ccc(S(=O)(=O)N(C)C[C@@H]2OCCCC[C@@H](C)Oc3ccc(NC(=O)Cc4ccccc4)cc3C(=O)N([C@@H](C)CO)C[C@H]2C)cc1,inactive: 1
2,COc1ccc(S(=O)(=O)N(C)C[C@H]2Oc3c(NS(=O)(=O)c4cn(C)cn4)cccc3C(=O)N([C@H](C)CO)C[C@@H]2C)cc1,inactive: 1.01
3,CC1=NCC[C@@H](C(=O)O)N1,inactive: 0.931
4,NC[C@@](O)(CS(=O)(=O)O)c1ccc(Cl)cc1,inactive: 0.996
5,COc1cccc(NC(=O)N2C[C@@H](O)COC[C@H]3O[C@@H](CC(=O)NCCCN4CCOCC4)CC[C@@H]32)c1,inactive: 1.02
6,Cc1noc(C)c1NC(=O)Nc1cccc2c1O[C@@H](CN(C)Cc1ccc(Oc3ccccc3)cc1)[C@H](C)CN([C@H](C)CO)C2=O,inactive: 0.995
7,C[C@@H]1CCCCO[C@@H](CN(C)Cc2ccncc2)[C@H](C)CN([C@H](C)CO)C(=O)c2cc(NC(=O)Nc3ccc4c(c3)OCO4)ccc2O1,inactive: 0.988
8,COc1ccccc1C#Cc1ccc2c(c1)O[C@@H](CN(C)C(C)=O)[C@H](C)CN([C@@H](C)CO)S2(=O)=O,inactive: 1.04
9,C=CCOC(=O)[C@H]1[C@@H]2C(=O)O[C@@H](c3ccccc3)[C@@H](c3ccccc3)N2[C@@H](c2ccc(OCCOC(=O)NCCCCCC(=O)NO)cc2)[C@@]12C(=O)Nc1ccccc12,inactive: 1.03
10,C[C@H]1CN([C@@H](C)CO)C(=O)c2cc(NC(=O)C3CC3)ccc2O[C@@H]1CN(C)Cc1ccc(Oc2ccccc2)cc1,inactive: 1
11,O=C(C[C@@H]1CC[C@H]2[C@@H](COC[C@@H](O)CN2CC2CCOCC2)O1)N1CCOCC1,inactive: 1.02
12,CN1C(=O)/C(=C(/C#N)C(N)=O)c2ccccc21,inactive: 1
13,Cc1cc(C(=O)Nc2cccc3c2O[C@@H](CN(C)C(=O)Nc2ccccc2)[C@H](C)CN([C@@H](C)CO)C3=O)n(C)n1,inactive: 0.996
14,CCCCC[C@@H](C[C@@H](CC(=O)O)O[C@H]1O[C@@H](CO)[C@@H](O)[C@@H](O)[C@@H]1O)OC(=O)C[C@H](O)C[C@H](CCCCC)O[C@H]1O[C@@H](CO)[C@@H](O)[C@@H](O)[C@@H]1O,inactive: 0.986
15,C[C@H]1CN([C@@H](C)CO)C(=O)c2ccccc2-c2ccccc2CO[C@@H]1CN(C)Cc1ccc(Cl)c(Cl)c1,inactive: 0.98
16,C[C@H](CO)N1C[C@H](C)[C@@H](CN(C)C(=O)C2CCCCC2)OCCCC[C@H](C)Oc2ccc(NS(=O)(=O)c3ccc(F)cc3)cc2C1=O,inactive: 1
17,COc1ccc(S(=O)(=O)Nc2cccc3c2O[C@@H](CN(C)Cc2ccc(Oc4ccccc4)cc2)[C@H](C)CN([C@@H](C)CO)C3=O)cc1,inactive: 1.02
18,C[C@H]1CN([C@@H](C)CO)C(=O)c2cc(-c3cccc(C#N)c3)cnc2O[C@H]1CN(C)C(=O)c1cnccn1,inactive: 1.02
19,C[C@H]1CN([C@@H](C)CO)C(=O)CCCn2nncc2CO[C@@H]1CN(C)S(=O)(=O)c1ccc(Cl)cc1,inactive: 0.995
20,COC(=O)C1=CC(CCCO)=C[C@@H](c2ccc(CN3CCCC3)cc2)N(Cc2sc3ccccc3c2Cl)C=C1C(=O)OC,inactive: 0.983
21,Cc1cncc2cccc(S(=O)(=O)N3CC[C@H](N(C/C=C/c4ccc(Br)cc4)C/C=C/c4ccc(Br)cc4)C3)c12,inactive: 1.03

row,Structure (SMILES),relative growth
1,C[C@@H]1CN([C@@H](C)CO)S(=O)(=O)c2ccc(-c3cccnc3)cc2O[C@H]1CN(C)C(=O)NC1CCCCC1,inactive: 0.914
2,COc1ccc(C#Cc2cnc3c(c2)C(=O)N([C@@H](C)CO)C[C@H](C)[C@H](CN(C)CC2CCOCC2)O3)cc1,inactive: 1.02
3,O=C(O)c1ccc(N[C@@H]2O[C@H](CO)[C@@H](O)[C@H](O)[C@H]2O)cc1,inactive: 1.03
4,COc1ccccc1-c1ccc2c(c1)O[C@@H](CN(C)C(=O)c1ccncc1)[C@H](C)CN([C@H](C)CO)S2(=O)=O,inactive: 0.978
5,C[C@H](CO)N1C[C@H](C)[C@@H](CN(C)S(=O)(=O)c2ccccc2)Oc2ncc(-c3ccncc3)cc2C1=O,inactive: 0.994
6,Cc1noc(C)c1NC(=O)N[C@H]1C=C[C@@H](CC(=O)NCCCN(C)C)O[C@H]1CO,inactive: 0.987
7,C[C@H]1CN([C@@H](C)CO)C(=O)c2cccc(NS(=O)(=O)c3cn(C)cn3)c2O[C@@H]1CN(C)C(=O)Nc1ccccc1,inactive: 0.993
8,C=c1ccc(C)c2c1=C(O)C(=O)N2,inactive: 0.978
9,O[C@@H]1CCCC[C@H]1O,inactive: 1.02
10,NCc1csc2c1CCCC2,inactive: 0.975
11,C[C@@H]1CN([C@H](C)CO)C(=O)CCCn2cc(nn2)CO[C@H]1CN(C)C(=O)C1CC1,inactive: 1.02
12,C[C@H]1CN([C@@H](C)CO)C(=O)Cc2cc(NC(=O)c3ccncc3)ccc2O[C@@H]1CN(C)S(=O)(=O)c1ccc(F)cc1,inactive: 0.978
13,C[C@@H]1CN([C@@H](C)CO)C(=O)c2cc(NC(=O)C3CCCCC3)ccc2O[C@@H](C)CCCCO[C@H]1CN(C)C(=O)Cc1ccccc1,inactive: 1
14,CC(C)CC#Cc1ccc2c(c1)O[C@@H](CN(C)C(=O)c1cnccn1)[C@H](C)CN([C@H](C)CO)S2(=O)=O,inactive: 1
15,COc1cccc(-c2ccc3c(c2)O[C@H](CN(C)C(=O)C2CCOCC2)[C@@H](C)CN([C@@H](C)CO)S3(=O)=O)c1,inactive: 0.997
16,C[C@@H]1CN([C@@H](C)CO)C(=O)c2cc(NC(=O)Nc3cccc4ccccc34)ccc2O[C@@H](C)CCCCO[C@H]1CN(C)S(=O)(=O)c1ccc(F)cc1,inactive: 1.02
17,C[C@@H]1CN([C@H](C)CO)C(=O)Cc2cc(NC(=O)C3CC3)ccc2O[C@@H]1CN(C)S(=O)(=O)c1cn(C)cn1,inactive: 0.955
18,COc1ccc(OC)c(S(=O)(=O)NCCO)c1,inactive: 1.03
19,C[C@H]1CN([C@@H](C)CO)C(=O)c2cc(NS(=O)(=O)c3cn(C)cn3)ccc2O[C@H]1CN(C)S(=O)(=O)c1ccc(Cl)cc1,inactive: 1.01
20,Cc1noc(C)c1S(=O)(=O)Nc1ccc2c(c1)C(=O)N([C@H](C)CO)C[C@@H](C)[C@H](CN(C)S(C)(=O)=O)O2,inactive: 0.981
